The subject of assay [1] is RAW-Dual. In words: NF-kB SEAP reporter activity, fold change vs agonist alone; higher = enhanced NF-kB activity. As to conditions: library stock concentration (final ~1000-fold dilution): 10 mM. A digest of the protocol:
(§1)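 After 50 nL of library stock was delivered by pin tool to RAW-Dual macrophages (50,000 cells/well, DMEM, 384-well plates), a PRR agonist was added 1 h later and the plates were kept at 37 °C, 5% CO2. Twenty hours later, IRF was read from supernatant by QuantiLuc luminescence and NF-κB by QuantiBlue absorbance at 620 nm. Reporter activity is stated as fold change over agonist-alone wells. Wells with IncuCyte confluency under 70% of agonist controls in both mask sets were counted as cytotoxic.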

In assay [2] the test system is RAW-Dual. The assay is described as follows: NF-kB SEAP reporter activity, fold change vs agonist alone; cytotoxicity flag (confluency mask): not cytotoxic; higher = enhanced NF-kB activity. The procedure, abridged:
as §1

In assay [3] the test system is RAW-Dual. In words: NF-kB SEAP reporter activity, fold change vs agonist alone; cytotoxicity flag (confluency mask): cytotoxic (confluency <70% of control); higher = enhanced NF-kB activity. A digest of the protocol:
as §1

Setting [4] is: cytotoxicity flag (confluency mask): not cytotoxic, agonist: Imiquimod (TLR7) […].
Setting [5] is: cytotoxicity flag (confluency mask): not cytotoxic, agonist: MPLA (TLR4) […].
[6] abbreviates: agonist: ODN 1826 (TLR9) 0.5 ug/mL.
Setting [7] is: agonist: Pam2CSK4 (TLR2/6) 0.1 ug/mL.
The mark [8] stands for this setting: agonist: Pam3CSK4 (TLR2/1) 0.1 ug/mL.

Whole data set: some 2,900 compounds, median “NF-kB SEAP reporter activity, fold change vs agonist alone” near 0.99, cut for the highest 2% near 2.6. The list shows a part of the results.

Turning to `Cc1ccc(-n2nc(C(C)(C)C)cc2NC(=O)NCc2cc(F)ccc2Oc2ccc3c(cnn3CCO)c2)cc1`, the “NF-kB SEAP reporter activity” value was determined as 0.188 with RAW-Dual [1] (setting [4]) and 0.318 in the assay on RAW-Dual [1] (setting [5]).
With `Cc1ccc(-n2nc(C(C)(C)C)cc2NC(=O)NCc2cc(F)ccc2Oc2ccc3c(cnn3CCO)c2)cc1` (library stock concentration (final ~1000-fold dilution): 10 mM), the “NF-kB SEAP reporter activity” value in the assay on RAW-Dual [2] (agonist: LPS (TLR4) 0.1 ug/mL) was 0.239; in the assay on RAW-Dual [2] (setting [6]), 0.216; with RAW-Dual [2] (setting [7]) it was 0.0703; in the assay on RAW-Dual [2] (setting [8]), 0.125.
As for `O=C(OC(C(F)(F)F)C(F)(F)F)N1CCN(Cc2ccc(C(F)(F)F)cc2N2CCCC2)CC1`, the “NF-kB SEAP reporter activity” value was determined as 0.911 in the assay on RAW-Dual [1] (setting [4]) and 1.06 in the assay with RAW-Dual [1] (setting [5]).
For the molecule `O=C(OC(C(F)(F)F)C(F)(F)F)N1CCN(Cc2ccc(C(F)(F)F)cc2N2CCCC2)CC1` (library stock concentration (final ~1000-fold dilution): 10 mM), the “NF-kB SEAP reporter activity” value stood at 0.974 in the assay on RAW-Dual [2] (agonist: LPS (TLR4) 0.1 ug/mL), 0.861 in the assay with RAW-Dual [2] (setting [6]), 0.957 in the assay with RAW-Dual [2] (setting [7]) and 0.863 in the assay with RAW-Dual [2] (setting [8]).
Consider `Oc1ccc(-c2nc(-c3ccc(F)cc3)c(-c3ccncc3)[nH]2)cc1` (library stock concentration (final ~1000-fold dilution): 10 mM), for which the “NF-kB SEAP reporter activity” value turned out to be 2.59 in the assay with RAW-Dual [2] (agonist: LPS (TLR4) 0.1 ug/mL), 0.851 in the assay on RAW-Dual [2] (setting [6]), 1.01 in the assay with RAW-Dual [2] (setting [7]) and 1.2 with RAW-Dual [2] (setting [8]).
In the case of `Oc1ccc(-c2nc(-c3ccc(F)cc3)c(-c3ccncc3)[nH]2)cc1`, the “NF-kB SEAP reporter activity” value stood at 1.92 in the assay on RAW-Dual [1] (setting [4]) and 1.84 with RAW-Dual [1] (setting [5]).
Take `O=c1n(CCCN2CCN(c3cccc(Cl)c3)CC2)nc2ccccn12` (library stock concentration (final ~1000-fold dilution): 10 mM): in the assay with RAW-Dual [2] (agonist: LPS (TLR4) 0.1 ug/mL), the “NF-kB SEAP reporter activity” value was determined as 2.72.
With `Cc1ccccc1C(C(=O)NC1CCCCC1)N(C(=O)Cn1ccnc1C)c1cccc(F)c1` (stereo unspecified) (library stock concentration (final ~1000-fold dilution): 10 mM), the “NF-kB SEAP reporter activity” value worked out at 1.37 in the assay on RAW-Dual [2] (agonist: LPS (TLR4) 0.1 ug/mL), 1.02 with RAW-Dual [2] (setting [6]), 0.953 with RAW-Dual [2] (setting [7]) and 0.848 with RAW-Dual [2] (setting [8]).
For `Cc1ccccc1C(C(=O)NC1CCCCC1)N(C(=O)Cn1ccnc1C)c1cccc(F)c1` (stereo unspecified), the “NF-kB SEAP reporter activity” value in the assay with RAW-Dual [1] (setting [4]) was 0.967; in the assay on RAW-Dual [1] (setting [5]) it was 1.01.
Turning to `CC(C)CN(CC(O)C(Cc1ccccc1)NC(=O)OC1CCOC1)S(=O)(=O)c1ccc(N)cc1` (stereo unspecified) (library stock concentration (final ~1000-fold dilution): 10 mM), the “NF-kB SEAP reporter activity” value with RAW-Dual [2] (agonist: LPS (TLR4) 0.1 ug/mL) stood at 1.41; in the assay on RAW-Dual [2] (setting [6]) it was 1.74; with RAW-Dual [2] (setting [7]), 1.45; in the assay on RAW-Dual [2] (setting [8]), 1.32.
For the molecule `CC(C)CN(CC(O)C(Cc1ccccc1)NC(=O)OC1CCOC1)S(=O)(=O)c1ccc(N)cc1` (stereo unspecified), the “NF-kB SEAP reporter activity” value is 1.3 in the assay on RAW-Dual [1] (setting [4]) and 1.6 in the assay on RAW-Dual [1] (setting [5]).
Regarding `CC1COC(Nc2ccc3ncnc(Nc4ccc(OCc5nccs5)c(Cl)c4)c3c2)=N1` (stereo unspecified) (library stock concentration (final ~1000-fold dilution): 10 mM), the “NF-kB SEAP reporter activity” value with RAW-Dual [2] (agonist: LPS (TLR4) 0.1 ug/mL) amounted to 0.991; in the assay with RAW-Dual [2] (setting [6]), 0.507; with RAW-Dual [2] (setting [7]), 0.602; in the assay with RAW-Dual [2] (setting [8]), 0.911.
For `CC1COC(Nc2ccc3ncnc(Nc4ccc(OCc5nccs5)c(Cl)c4)c3c2)=N1` (stereo unspecified), the “NF-kB SEAP reporter activity” value with RAW-Dual [1] (setting [4]) was determined as 1.28; with RAW-Dual [1] (setting [5]), 1.03.
For `C[C@@H]1O[C@@H](O[C@H]2[C@H](OC(=O)[C@]34CCC(C)(C)C[C@H]3C3=CC[C@@H]5[C@@]6(C)C[C@H](O)[C@H](O[C@@H]7O[C@H](CO)[C@@H](O)[C@H](O)[C@H]7O)[C@@](C)(CO)[C@@H]6CC[C@@]5(C)[C@]3(C)CC4)O[C@H](CO)[C@@H](O)[C@@H]2O)[C@H](O)[C@H](O)[C@H]1O[C@@H]1OC[C@@H](O)[C@H](O)[C@H]1O`, in that order: 0.83 and 1.01.
Take `C[C@@H]1O[C@@H](O[C@H]2[C@H](OC(=O)[C@]34CCC(C)(C)C[C@H]3C3=CC[C@@H]5[C@@]6(C)C[C@H](O)[C@H](O[C@@H]7O[C@H](CO)[C@@H](O)[C@H](O)[C@H]7O)[C@@](C)(CO)[C@@H]6CC[C@@]5(C)[C@]3(C)CC4)O[C@H](CO)[C@@H](O)[C@@H]2O)[C@H](O)[C@H](O)[C@H]1O[C@@H]1OC[C@@H](O)[C@H](O)[C@H]1O` (library stock concentration (final ~1000-fold dilution): 10 mM): the “NF-kB SEAP reporter activity” value is 1.11 with RAW-Dual [2] (agonist: LPS (TLR4) 0.1 ug/mL), 0.984 in the assay on RAW-Dual [2] (setting [6]), 1.04 in the assay with RAW-Dual [2] (setting [7]) and 1.19 in the assay on RAW-Dual [2] (setting [8]).
For `COc1cc2c(cc1OC(C)C)C(c1ccc(Cl)cc1)N(c1ccc(N(C)CC3CCC(N4CCN(C)C(=O)C4)CC3)cc1)C(=O)C2` (stereo unspecified) (library stock concentration (final ~1000-fold dilution): 10 mM), in that order: 0.702, 0.529, 0.211 and 0.373.
With `COc1cc2c(cc1OC(C)C)C(c1ccc(Cl)cc1)N(c1ccc(N(C)CC3CCC(N4CCN(C)C(=O)C4)CC3)cc1)C(=O)C2` (stereo unspecified), the “NF-kB SEAP reporter activity” value came to 0.648 in the assay on RAW-Dual [1] (setting [4]) and 0.853 in the assay on RAW-Dual [1] (setting [5]).
As for `COc1cc2ncnc(Nc3cccc(Cl)c3)c2cc1OC` (library stock concentration (final ~1000-fold dilution): 10 mM), the “NF-kB SEAP reporter activity” value came out at 1.59 in the assay with RAW-Dual [3] (agonist: LPS (TLR4) 0.1 ug/mL), 0.692 with RAW-Dual [3] (setting [6]), 0.764 in the assay with RAW-Dual [3] (setting [7]) and 1.02 in the assay on RAW-Dual [3] (setting [8]).
`COc1cc2ncnc(Nc3cccc(Cl)c3)c2cc1OC`: the “NF-kB SEAP reporter activity” value in the assay on RAW-Dual [1] (cytotoxicity flag (confluency mask): cytotoxic (confluency <70% of control), agonist: Imiquimod (TLR7) […]) was found to be 1.58; in the assay on RAW-Dual [1] (cytotoxicity flag (confluency mask): cytotoxic (confluency <70% of control), agonist: MPLA (TLR4) […]), 1.42.
`O=c1oc2cc(O)ccc2s1` (library stock concentration (final ~1000-fold dilution): 10 mM): the “NF-kB SEAP reporter activity” value amounted to 0.896 with RAW-Dual [2] (agonist: LPS (TLR4) 0.1 ug/mL), 1 in the assay with RAW-Dual [2] (setting [6]), 1.36 in the assay on RAW-Dual [2] (setting [7]) and 0.983 in the assay on RAW-Dual [2] (setting [8]).
Consider `O=c1oc2cc(O)ccc2s1`, for which the “NF-kB SEAP reporter activity” value with RAW-Dual [1] (setting [4]) is 0.953; in the assay on RAW-Dual [1] (setting [5]), 1.05.
In the case of `O=C(O)c1ccccc1O` (library stock concentration (final ~1000-fold dilution): 10 mM), the “NF-kB SEAP reporter activity” value in the assay with RAW-Dual [2] (agonist: LPS (TLR4) 0.1 ug/mL) stood at 1.08; with RAW-Dual [2] (setting [6]), 0.992; with RAW-Dual [2] (setting [7]) it was 0.923; with RAW-Dual [2] (setting [8]), 1.11.
As for `O=C(O)c1ccccc1O`, the results for the “NF-kB SEAP reporter activity” value with RAW-Dual [1] (setting [4]) and with RAW-Dual [1] (setting [5]) were 0.851 and 0.999, respectively.
For `CCOc1ccc2nc(S(N)(=O)=O)sc2c1`, in that order: 0.885 and 0.966.
For `CCOc1ccc2nc(S(N)(=O)=O)sc2c1` (library stock concentration (final ~1000-fold dilution): 10 mM), the “NF-kB SEAP reporter activity” value in the assay with RAW-Dual [2] (agonist: LPS (TLR4) 0.1 ug/mL) is 1.12; with RAW-Dual [2] (setting [6]), 0.784; with RAW-Dual [2] (setting [7]), 1.03; with RAW-Dual [2] (setting [8]), 1.03.
In the case of `COC(=O)c1ccc(O)c(OC)c1` (library stock concentration (final ~1000-fold dilution): 10 mM), the “NF-kB SEAP reporter activity” value with RAW-Dual [2] (agonist: LPS (TLR4) 0.1 ug/mL) was found to be 1.37; in the assay on RAW-Dual [2] (setting [6]), 1.19; with RAW-Dual [2] (setting [7]), 1.22; with RAW-Dual [2] (setting [8]), 1.02.
For `COC(=O)c1ccc(O)c(OC)c1`, the “NF-kB SEAP reporter activity” value turned out to be 1.34 in the assay on RAW-Dual [1] (setting [4]) and 1.11 with RAW-Dual [1] (setting [5]).
With `CS(=O)(=O)c1ccc(-c2nnc(/C=C/c3nnc(-c4ccc(C#N)cc4)o3)n2-c2ccccc2Cl)nc1` (library stock concentration (final ~1000-fold dilution): 10 mM), the “NF-kB SEAP reporter activity” value in the assay on RAW-Dual [2] (agonist: LPS (TLR4) 0.1 ug/mL) is 0.757; with RAW-Dual [2] (setting [6]) it was 0.833; with RAW-Dual [2] (setting [7]) it was 0.999; in the assay on RAW-Dual [2] (setting [8]), 1.66.
For the molecule `CS(=O)(=O)c1ccc(-c2nnc(/C=C/c3nnc(-c4ccc(C#N)cc4)o3)n2-c2ccccc2Cl)nc1`, the entries for the “NF-kB SEAP reporter activity” value in the assay on RAW-Dual [1] (setting [4]) and in the assay with RAW-Dual [1] (setting [5]) were 1.01 and 0.792, respectively.
Consider `CN(C)CCC(c1ccc(Cl)cc1)c1ccccn1.O=C(O)/C=C\C(=O)O` (stereo unspecified) (library stock concentration (final ~1000-fold dilution): 10 mM), for which the “NF-kB SEAP reporter activity” value in the assay with RAW-Dual [2] (agonist: LPS (TLR4) 0.1 ug/mL) turned out to be 1.16; in the assay on RAW-Dual [2] (setting [6]), 0.822; in the assay with RAW-Dual [2] (setting [7]), 1.03; in the assay with RAW-Dual [2] (setting [8]), 1.14.
Turning to `CN(C)CCC(c1ccc(Cl)cc1)c1ccccn1.O=C(O)/C=C\C(=O)O` (stereo unspecified), the figures for the “NF-kB SEAP reporter activity” value in the assay on RAW-Dual [1] (setting [4]) and with RAW-Dual [1] (setting [5]) were 1.09 and 0.839, respectively.
